Several values for one entry are separate records, joined by “and”; a condition that tells them apart may be missing. Equal entries are not always repeated. Screen size: about 2,000 compounds; about 45 (2%) were called active.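 The calls were made as follows: active = inhibition above the mean of all tested compounds plus 3 SD (cut at about 49% in these data); inactive = the rest.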 This is one part of the list. Where a SMILES comes first, the peptide text is derived from it.

This test has as its target Perilipin-5 (Homo sapiens) + 1-acylglycerol-3-phosphate O-acyltransferase ABHD5 (Homo sapiens) (UniProt Q00G26+Q8WTS1). Briefly: blockers of ABHD5 binding to perilipin-5 – cell lysate, split luciferase complementation, luminescence, NIH validation set, pilot screen (AID 493035).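 Also: 0% = DMSO only wells while the 100% control is not stated.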 The note with it: split G. princeps luciferase complementation, lysates, 4 h; at 7.9 µM, active compounds read high.
Chain of UniProt Q00G26 (Q00G26 whole entry, looked up): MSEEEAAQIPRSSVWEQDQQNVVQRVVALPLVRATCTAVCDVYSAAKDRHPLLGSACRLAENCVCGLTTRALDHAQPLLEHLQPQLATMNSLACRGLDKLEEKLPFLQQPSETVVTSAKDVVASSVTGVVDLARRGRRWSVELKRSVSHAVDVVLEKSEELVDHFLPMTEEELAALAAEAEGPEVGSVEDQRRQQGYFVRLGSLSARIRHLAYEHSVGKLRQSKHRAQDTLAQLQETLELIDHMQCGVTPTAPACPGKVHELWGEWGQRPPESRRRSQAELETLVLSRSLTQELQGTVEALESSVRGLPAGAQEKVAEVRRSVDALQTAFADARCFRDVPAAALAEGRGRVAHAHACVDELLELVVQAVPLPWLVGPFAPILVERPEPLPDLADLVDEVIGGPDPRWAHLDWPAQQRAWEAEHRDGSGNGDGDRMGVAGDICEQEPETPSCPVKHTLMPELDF
Chain of UniProt Q00G26 (Q8WTS1 whole entry, looked up): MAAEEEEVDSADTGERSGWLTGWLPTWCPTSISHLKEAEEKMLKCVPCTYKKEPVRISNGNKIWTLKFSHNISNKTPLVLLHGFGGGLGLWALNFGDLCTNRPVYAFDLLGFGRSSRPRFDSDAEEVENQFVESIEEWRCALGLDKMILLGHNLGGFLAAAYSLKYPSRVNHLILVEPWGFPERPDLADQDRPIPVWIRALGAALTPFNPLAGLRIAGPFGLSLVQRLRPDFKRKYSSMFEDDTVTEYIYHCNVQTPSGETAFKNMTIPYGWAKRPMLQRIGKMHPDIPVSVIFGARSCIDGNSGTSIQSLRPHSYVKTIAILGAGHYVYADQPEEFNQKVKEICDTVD
In general, inhibition refers to the drop in the measured response relative to a control, in per cent. Take `CC(=O)O[C@H]1CC[C@H]2[C@@H]3CCc4cc(O)ccc4[C@H]3CC[C@]12C`: the inhibition is inactive: 9.68%.

Consider `CCCCCCCC(=O)OCC(O)CO` (stereo not given), for which the inhibition was inactive: -0.46%.

With `O=C(Nc1ccc(Oc2c(F)c(F)c(F)c(F)c2F)cc1)OC1CCN2Cc3ccccc3N=C12` (stereo not given), the inhibition is active: 69.3%.

In the case of `COc1ccc(-c2cc3cc(OC)c(OC)cc3c(C)n2)cc1`, the inhibition was inactive: -6.39%.

In the case of `Cc1ncc([N+](=O)[O-])n1CC(C)O` (stereo not given), the inhibition was inactive: -2.38%.

As for `C/C=C(/C(=C/C)c1ccc(O)cc1)c1ccc(O)cc1`, the inhibition is inactive: 8.35%.

For the molecule `O=[N+]([O-])c1cc(/C=N/n2cnnc2)ccc1N1CCCC1`, the inhibition is inactive: 4.2%.

Turning to `COc1ccc2cc([C@H](C)C(=O)O)ccc2c1`, the inhibition is inactive: -4.01%.

Consider `CCN(CC)c1ccc(C2=NNC(=O)CC2C)cc1[N+](=O)[O-]` (stereo not given), for which the inhibition is inactive: -10.9%.

As for `C[C@@H]1C[C@H](Nc2ccccc2)c2ccccc2N1C(=O)c1cccnc1`, the inhibition is inactive: -13.3%.

Consider `Oc1[nH]c2ccccc2c1C1=NCCCC1`, for which the inhibition is inactive: -9.5%.

For `C=C(C)[C@@H]1CC=C(CN2CCC(N3CCC(C(=O)N4CCCC4)CC3)CC2)CC1`, the inhibition was inactive: -9.03%.

`COc1cc2c(cc1NCc1ccc3c(c1)OCO3)oc1ccccc12`: the inhibition is inactive: -2.26%.

Take `COc1ccc(-c2noc(CCc3ccccc3)n2)cc1`: the inhibition was inactive: -10.1%.

In the case of `CC(C)C[C@H](NC(=O)[C@@H]1Cc2ccccc2CN1C(=O)OC(C)(C)C)C(=O)NCC1CCC(C(=O)O)CC1` (stereo not given in full), the inhibition was inactive: -1.68%.

Consider `COC(=O)c1ccc(=O)n(Cc2ccco2)c1`, for which the inhibition was inactive: 18.6%.

For `O=C(Nc1cccc(Oc2c(F)c(F)c(F)c(F)c2F)c1)N1C[C@@H]2C[C@@H](C1)c1cccc(=O)n1C2`, the inhibition is inactive: 13.7%.

For `COc1cccc(OC2OC3COC(C)(C)OC3C(O)C2NC(C)=O)c1` (stereo not given), the inhibition was inactive: -7.45%.

As to `Cn1c(=O)[nH]c(=O)c2c1nc(Br)n2CCCO`, the inhibition was inactive: -2.4%.

As to `N/C(=N\OC(=O)c1ccc(Br)o1)c1ccccn1`, the inhibition was inactive: -0.68%.

For `CN1[C@@H]2CC(OC(=O)[C@H](CO)c3ccccc3)C[C@H]1[C@@H]1O[C@@H]12` (stereo not given in full), the inhibition is inactive: -0.98% and inactive: 0.39%.

As for `O=C(NCc1ccc(N2CCCC2=O)cc1)c1ccc(F)cc1`, the inhibition is inactive: 7.2%.

Regarding `COc1cc(C(=O)Nc2cccc(-c3nnc(-c4ccco4)o3)c2)ccc1OC(C)=O`, the inhibition was inactive: -3.44%.

On to `CCNC(=S)Nc1ccc(OC(F)(F)F)cc1`, for which the inhibition was inactive: -0.14%.

As for `O=c1cc(-c2ccc3c(c2)OCCO3)oc2ccc(Cl)cc12`, the inhibition was inactive: -8.12%.

`NC(=O)c1cnccn1`: the inhibition is inactive: -0.64%.

For `Cc1nc2ccccn2c(=O)c1CCN1CCC(C(=O)c2ccc(F)cc2)CC1`, the inhibition was inactive: -3.87%.

Consider `CCCn1c(=O)c2[nH]c(C3CCCC3)nc2n(CCC)c1=O`, for which the inhibition is inactive: -1.98%.

`CCOC(=O)n1c(=O)oc2ccccc21`: the inhibition is inactive: -7.55%.

Take `O=C(CCNNC(=O)c1ccncc1)NCc1ccccc1`: the inhibition was inactive: 0.99%.

`Oc1ccc(Oc2ncc(Cl)cc2Cl)cc1`: the inhibition is inactive: -4.25%.

In the case of `CCOC(=O)N1CCc2[nH]c3ccc(C)cc3c2C1`, the inhibition is inactive: 14.9%.

On to `Cc1nc(N[C@@H](Cc2c[nH]c3ccccc23)C(=O)O)c2oc3ccccc3c2n1`, for which the inhibition is inactive: 4.96%.

Turning to `O=C(Oc1ccccc1)Oc1ccc2c(c1)oc(=O)c1ccccc12`, the inhibition is inactive: -3.33%.

In the case of `CCCCCC(=O)O[C@]1(C(C)=O)CC[C@H]2[C@@H]3CCC4=CC(=O)CC[C@]4(C)[C@H]3CC[C@@]21C`, the inhibition is inactive: 3.12%.

For the molecule `CNCCCC12CCC(c3ccccc31)c1ccccc12`, the inhibition is inactive: -7.66% and inactive: -3.95%.

`O=C(NCCN1CCOCC1)c1ccc(Cl)cc1`: the inhibition was inactive: -1.5%.

In the case of `Cc1cc(OC(=O)CNC(=O)OC(C)(C)C)c2c(C)cc(=O)oc2c1`, the inhibition was inactive: 10.9%.

With `CC(=O)N(CCC1(c2ccc(C)cc2)CCOC(C(C)C)C1)Cc1ccco1` (stereo not given), the inhibition was inactive: 2.14%.

Consider `O=C(O)CCn1cnc2ccccc2c1=O`, for which the inhibition is inactive: 3.76%.

Turning to `O=C(CCCN1C(=O)/C(=C\c2cccs2)SC1=S)Nc1ccccn1`, the inhibition is inactive: -1.47%.

With `O=C1CCCN1CCCn1cnc2c([nH]c3ccc(F)cc32)c1=O`, the inhibition was inactive: 1.78%.

In the case of `CC(=O)CCCCn1c(=O)c2c(ncn2C)n(C)c1=O`, the inhibition is inactive: 8.53%.

For the molecule `Cc1cccc2c(=O)n3c(nc12)CCCCC3`, the inhibition was inactive: -2.11%.

As for `CC1(C#CC[N+]2(C)CCCCC2)CCC2C(O1)c1ccccc1OC2(C)C` (stereo not given), the inhibition is inactive: 3.83%.

As to `Cc1ccc(C(=O)COC(=O)c2cccc(N3C(=O)c4c(C)nc5ccccc5c4C3=O)c2)cc1C`, the inhibition was inactive: 3.75%.

For the molecule `Cc1cc(O)c(C(C)C)cc1C1(c2cc(C(C)C)c(O)cc2C)OC(=O)c2ccccc21`, the inhibition is inactive: 19.5%.

On to `COc1ccc(C2CC(c3ccc([N+](=O)[O-])cc3)=NN2C(=O)c2ccccc2)cc1OC` (stereo not given), for which the inhibition was inactive: -27.7%.

On to `CCCCCC(O)c1cccc(OCc2ccc3ccccc3n2)c1` (stereo not given), for which the inhibition is inactive: 11.6%.

As to `CC(=O)N1CC2(C)CN(C(C)=O)CC(C)(C1)C2`, the inhibition is inactive: 1.29%.

Regarding `O=c1ccn([C@@H]2O[C@H](CO)[C@@H](O)[C@H]2O)c(=O)[nH]1`, the inhibition is inactive: 1.08%.

In the case of `Cc1cc(OC(C(=O)O)c2ccccc2)c2c(C)c(Cc3ccccc3)c(=O)oc2c1` (stereo not given), the inhibition is inactive: 11.8%.

As for `C[N+]12CCCCC1C(COC(=O)c1ccc3c(c1)OCO3)CCC2` (stereo not given), the inhibition is inactive: 1.79%.

With `CCCCNc1cc(C(=O)O)cc(S(N)(=O)=O)c1Oc1ccccc1`, the inhibition was inactive: -1.78%.

Take `CC1(C)CC(CC(=O)O)(c2ccc(Cl)cc2)CCO1` (stereo not given): the inhibition was inactive: 3.79%.

Regarding `COc1c2c(nc3occc13)C(CC=C(C)C)(OC)C(O)CC2` (stereo not given), the inhibition is inactive: -4.3%.

Turning to `COc1cc(CC(=O)NCCc2ccc(S(N)(=O)=O)cc2)cc(OC)c1OC`, the inhibition is inactive: 3.06%.

`COc1ccc(C(=O)CCN2CCc3cc(OC)c(OC)cc3C2)cc1`: the inhibition is inactive: 13.3%.

Take `Cc1cccc(OCC(=O)Nc2ccc(C(=O)NCC(C)C)cc2)c1`: the inhibition is inactive: -3.36%.

As to `C[C@H]([C@@H](N)C(=O)N[C@@H](C(=O)O)[C@@H]1O[C@H](n2ccc(=O)[nH]c2=O)[C@@H](O)[C@H]1O)[C@@H](O)c1ccc(O)cn1`, the inhibition was inactive: 8.59%.

`CC(=O)NC(CC(C)C)C(=O)NC(Cc1ccccc1)C(N)=O` (stereo not drawn) (Ac-Leu-Phe-NH2; configuration not given here): the inhibition is inactive: -2.12%.

In the case of `Cc1ccnc(NS(=O)(=O)c2ccc(N)cc2)n1`, the inhibition is inactive: -3.85%.

Take `Cc1c(OCC(=O)NC(Cc2c[nH]c3ccc(O)cc23)C(=O)O)ccc2c3c(c(=O)oc12)CCC3` (stereo not given): the inhibition was inactive: -12.8%.

`NC(=O)OCC(COC(N)=O)c1ccccc1`: the inhibition was inactive: -5.61%.

For the molecule `COc1cc(CNc2ccc(C)c(C)c2)cc(OC)c1OC`, the inhibition is inactive: 1.18%.

For the molecule `Cc1ccc(C2CC(c3cccs3)=NN2C(=O)c2ccco2)o1` (stereo not given), the inhibition is inactive: 0.65%.

On to `O=C(CNC(=O)OCc1ccccc1)NC1CCCCCC1`, for which the inhibition is inactive: -6%.

For the molecule `CC(=O)N[C@@H](CS)C(=O)O`, the inhibition was inactive: -2.08%.

`O=C(OCC(O)C(O)COC(=O)c1ccccc1)c1ccccc1` (stereo not given): the inhibition is inactive: -5.65%.

Regarding `O=C(CCc1ccccc1)Nc1ccccc1C(F)(F)F`, the inhibition was inactive: -12.3%.

On to `CC(=O)c1c(C)c(C)c2n1CCn1c(C)ccc1-2`, for which the inhibition was inactive: 8.49%.

For the molecule `CC1(C)CC(=O)C(C2(O)C(=O)Nc3ccccc32)CO1` (stereo not given), the inhibition is inactive: -12.2%.

As to `O=C(CCCCC(=O)NC1CCCC1)NC1CCCC1`, the inhibition is inactive: 3.84%.

Consider `CC[C@H](C)C(=O)O[C@H]1C[C@@H](C)C=C2C=C[C@H](C)[C@H](CC[C@@H]3C[C@@H](O)CC(=O)O3)[C@H]21`, for which the inhibition was inactive: 6.1%.

As for `Cc1nc(C2CC(=O)OC23CCCCC3)cs1` (stereo not given), the inhibition was inactive: -14.9%.

On to `COc1ccc(C(=O)O)cc1F`, for which the inhibition was inactive: 1.71%.

Turning to `COc1cccc(OCc2cc(C3Nc4ccccc4C(=O)N3Cc3ccco3)ccc2OC)c1` (stereo not given), the inhibition was inactive: 33.7%.

Take `CCN(CC)C(=S)SSC(=S)N(CC)CC`: the inhibition is active: 95.2%.

As for `Nc1ccc2cn[nH]c2c1`, the inhibition was inactive: -10.6%.

Take `CCOC(=O)C(NC(C)=O)C(O)c1ccc([N+](=O)[O-])cc1` (stereo not given): the inhibition is inactive: -12%.

Consider `COc1cc2cc(C(=O)O)n(C)c2c(OC)c1OC`, for which the inhibition was inactive: 6.31%.

As to `O=C1OC(Nc2ccc3c(c2)OCO3)c2ccccc21` (stereo not given), the inhibition is inactive: 16.9%.

Take `CCNC(=O)c1c(N)sc2c1CCCCC2`: the inhibition was inactive: 39.1%.

On to `Nc1c2c(nc3ccccc13)CCCC2`, for which the inhibition is inactive: 9.33%.

Consider `COc1ccc(C(C)N2CC34C=CC(O3)C(C(=O)OCC(C)C)C4C2=O)cc1` (stereo not given), for which the inhibition was inactive: -7.66%.

Consider `COc1cc2c3c(c1)C1(C(=O)N3C(C)(C)C=C2C)C(C#N)=C(N)Oc2cc(C)oc(=O)c21` (stereo not given), for which the inhibition was inactive: -5.05%.

`COc1cc2c(cc1OC)C(C)=NC1(CCCCC1)C2`: the inhibition was inactive: -3.54%.

Regarding `Oc1ccc(COCc2ccccc2)c2cccnc12`, the inhibition is inactive: 6.53%.

Consider `O=C(O)c1cc2cc(Cl)cc(Cl)c2oc1=O`, for which the inhibition is inactive: 4.45%.

For the molecule `O=C(NC(Nc1ccccn1)C(Cl)(Cl)Cl)c1ccccc1` (stereo not given), the inhibition was inactive: 11.4%.

For `C[C@]12C[C@H](O)[C@H]3[C@@H](CCC4=CC(=O)CC[C@@]43C)[C@@H]1CC[C@@H]2C(=O)CO`, the inhibition is inactive: 3.18%.

In the case of `O=C(NCCNc1ccc(Cl)cc1[N+](=O)[O-])c1cccnc1`, the inhibition was inactive: 4.98%.

`COc1ccc(NC(=S)NCCc2c[nH]c3ccccc23)cc1`: the inhibition is inactive: -5.45%.

Consider `CC(C)Oc1ccc(C2CC(=O)N(c3ccc(C(=O)O)cc3)C2=O)cc1` (stereo not given), for which the inhibition is inactive: -5.83%.

Take `c1ccc(-c2ccccn2)nc1`: the inhibition is inactive: 4.87%.

Values taken from PubChem BioAssay AID493035 (The Scripps Research Institute Molecular Screening Center, 2011).
